Laboratory results as given in ChEMBL document CHEMBL5674866 (J Biol Chem, 2015).

Columns and labels:
[1] = Inhibition of human FLT3 autoinhibited mutant by discoverX kinome scan assay
[2] = target: cAMP-dependent protein kinase catalytic subunit beta (Homo sapiens, UniProt P22694); assay: Inhibition of human PKAC-beta by discoverX kinome scan assay
[3] = target: Serine/threonine-protein kinase Nek7 (Homo sapiens, UniProt Q8TDX7); assay: Inhibition of human NEK7 by discoverX kinome scan assay
[4] = target: Cyclin-dependent kinase 18 (Homo sapiens, UniProt Q07002); assay: Inhibition of human PCTK3 by discoverX kinome scan assay
UniProt Q07002, sequence (Q07002 whole entry): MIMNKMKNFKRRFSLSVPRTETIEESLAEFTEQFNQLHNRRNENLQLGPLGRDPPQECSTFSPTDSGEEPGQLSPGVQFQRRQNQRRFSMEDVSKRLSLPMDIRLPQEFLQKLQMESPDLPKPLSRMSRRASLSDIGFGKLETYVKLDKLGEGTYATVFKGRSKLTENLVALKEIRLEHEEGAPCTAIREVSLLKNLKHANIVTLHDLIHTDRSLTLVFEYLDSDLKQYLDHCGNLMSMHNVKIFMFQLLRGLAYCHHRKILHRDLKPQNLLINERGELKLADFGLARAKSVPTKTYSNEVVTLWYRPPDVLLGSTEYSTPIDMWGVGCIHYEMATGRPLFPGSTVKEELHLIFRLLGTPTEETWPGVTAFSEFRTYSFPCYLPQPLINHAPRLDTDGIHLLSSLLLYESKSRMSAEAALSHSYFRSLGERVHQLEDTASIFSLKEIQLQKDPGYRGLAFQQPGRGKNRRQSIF

[5] = target: Serine/threonine-protein kinase PAK 3 (Homo sapiens, UniProt O75914); assay: Inhibition of human PAK3 by discoverX kinome scan assay
[6] = target: Serine/threonine-protein kinase pim-2 (Homo sapiens, UniProt Q9P1W9); assay: Inhibition of human PIM2 by discoverX kinome scan assay
UniProt Q9P1W9, sequence (Q9P1W9 whole entry): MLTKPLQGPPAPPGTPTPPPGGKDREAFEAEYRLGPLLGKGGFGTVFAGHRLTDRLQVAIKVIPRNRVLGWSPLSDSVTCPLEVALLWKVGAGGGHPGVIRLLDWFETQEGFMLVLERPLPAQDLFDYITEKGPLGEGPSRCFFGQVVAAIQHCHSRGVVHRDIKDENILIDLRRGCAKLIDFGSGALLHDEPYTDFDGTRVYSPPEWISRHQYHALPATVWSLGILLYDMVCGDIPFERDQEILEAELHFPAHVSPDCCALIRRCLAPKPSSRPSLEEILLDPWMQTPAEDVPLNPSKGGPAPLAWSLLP

[7] = target: Cyclin-dependent kinase 17 (Homo sapiens, UniProt Q00537); assay: Inhibition of human PCTK2 by discoverX kinome scan assay
UniProt Q00537, sequence (Q00537 whole entry, the tested form may be a part): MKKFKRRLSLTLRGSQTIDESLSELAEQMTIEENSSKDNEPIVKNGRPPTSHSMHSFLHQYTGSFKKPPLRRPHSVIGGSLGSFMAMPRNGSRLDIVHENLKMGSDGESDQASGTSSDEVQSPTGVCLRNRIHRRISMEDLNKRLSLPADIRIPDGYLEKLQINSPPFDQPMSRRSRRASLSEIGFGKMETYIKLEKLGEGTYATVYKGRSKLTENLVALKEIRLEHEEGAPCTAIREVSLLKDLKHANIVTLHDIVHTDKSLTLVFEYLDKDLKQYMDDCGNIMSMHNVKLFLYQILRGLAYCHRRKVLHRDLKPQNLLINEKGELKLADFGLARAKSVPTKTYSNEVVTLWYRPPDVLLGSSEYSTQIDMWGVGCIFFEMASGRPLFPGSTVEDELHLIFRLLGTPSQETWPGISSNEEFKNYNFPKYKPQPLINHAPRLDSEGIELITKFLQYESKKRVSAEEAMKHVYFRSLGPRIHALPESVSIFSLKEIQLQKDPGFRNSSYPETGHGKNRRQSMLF

[8] = target: Phosphatidylinositol 4-phosphate 3-kinase C2 domain-containing subunit beta (Homo sapiens, UniProt O00750); assay: Inhibition of human PIK3C2B by discoverX kinome scan assay
[9] = test system: KYSE-150 cell line; assay: Effect on cellular post-translational modifications on histone H3 (KSTGGKAPR) - K9 acetylated, K14 acetylated in human KYSE-150 cells assessed as fold change by mass spectrometric analysis; type: functional
[10] = test system: KYSE-150 cell line; assay: Effect on cellular post-translational modifications on histone H3 (KSTGGKAPR) - K9 trimethylated, K14 unmethylated in human KYSE-150 cells assessed as fold change by mass spectrometric analysis; type: functional
Method in brief: (§1)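 Histones acid-extracted from SMYD2-overexpressing KYSE-150 cells treated with vehicle or 5 μM inhibitor. Samples derivatized with propionic anhydride, then trypsin-digested for 6 h at 37 °C. Each modification's relative abundance on a peptide sequence, as a percentage, was quantified from MS and MS/MS spectra and compared with vehicle.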

[11] = target: N-lysine methyltransferase SMYD2 (Homo sapiens) (UniProt Q9NRG4); assay: Inhibition of FLAG-tagged SMYD2 methylation activity in human KYSE-150 cell line assessed as decrease in mono-methyl-Lys370 p53 by sandwich ELISA analysis; type: cell-based
UniProt Q9NRG4, sequence (Q9NRG4 whole entry): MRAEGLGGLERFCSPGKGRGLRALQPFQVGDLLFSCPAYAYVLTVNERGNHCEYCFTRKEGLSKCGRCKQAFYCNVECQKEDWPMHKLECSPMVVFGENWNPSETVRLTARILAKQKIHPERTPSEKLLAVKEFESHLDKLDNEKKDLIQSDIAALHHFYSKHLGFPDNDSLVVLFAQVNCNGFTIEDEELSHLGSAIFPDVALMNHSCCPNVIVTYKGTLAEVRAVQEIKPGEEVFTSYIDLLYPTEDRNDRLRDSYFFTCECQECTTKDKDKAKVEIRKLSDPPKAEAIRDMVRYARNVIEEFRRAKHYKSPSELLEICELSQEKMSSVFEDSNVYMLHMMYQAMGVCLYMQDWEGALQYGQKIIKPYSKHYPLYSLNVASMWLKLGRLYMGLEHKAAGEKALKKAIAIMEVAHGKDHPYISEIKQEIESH
Method in brief: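 KYSE-150 cells stably overexpressing FLAG-SMYD2, 1×10^6 per well, treated the following day with 0–5 μM for 24 h, then lysed. Sandwich electrochemiluminescence ELISA: capture with plate-coated methyl-p53 (Lys370me1) antibody, 0.5 μg lysate bound overnight at 4 °C, then SULFO-TAG total p53 detection antibody for 1 h at room temperature.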

[12] = target: 3-phosphoinositide-dependent protein kinase 1 (Homo sapiens, UniProt O15530); assay: Inhibition of human PDPK1 by discoverX kinome scan assay
[13] = Inhibition of human KIT-autoinhibited by discoverX kinome scan assay
[14] = Inhibition of human ABL1 pE255K mutant by discoverX kinome scan assay
[15] = Inhibition of human LYK by discoverX kinome scan assay
[16] = target: Serine/threonine-protein kinase PAK 6 (Homo sapiens, UniProt Q9NQU5); assay: Inhibition of human PAK6 by discoverX kinome scan assay
[17] = test system: KYSE-150 cell line; assay: Effect on cellular post-translational modifications on histone H3 (KSTGGKAPR) - K9 unmethylated, K14 acetylated in human KYSE-150 cells assessed as fold change by mass spectrometric analysis; type: functional; method in brief: as §1
[18] = target: Interferon-induced, double-stranded RNA-activated protein kinase (Homo sapiens, UniProt P19525); assay: Inhibition of PRKR (unknown origin) by discoverX kinome scan assay
[19] = test system: KYSE-70 cell line; assay: Antiproliferative activity against human KYSE-70 cells measured after 7 day by celltitre-glo luminescent assay; type: functional, cell-based; conditions: KYSE-70, 168 h
[20] = Inhibition of bacterial PKNB by discoverX kinome scan assay; parameters: species or system Bacteria
[21] = target: Serine/threonine-protein kinase Nek9 (Homo sapiens, UniProt Q8TD19); assay: Inhibition of human NEK9 by discoverX kinome scan assay
[22] = target: Serine/threonine-protein kinase Nek10 (Homo sapiens, UniProt Q6ZWH5); assay: Inhibition of human NEK10 by discoverX kinome scan assay
[23] = test system: KYSE-150 cell line; assay: Effect on cellular post-translational modifications on histone H3 (EIAQDFKTDLR) - K79 unmethylated in human KYSE-150 cells assessed as fold change by mass spectrometric analysis; type: functional
[24] = target: Phosphatidylinositol 4,5-bisphosphate 3-kinase catalytic subunit alpha isoform (Homo sapiens, UniProt P42336, E545A); assay: Inhibition of human PIK3CA E545A mutant by discoverX kinome scan assay
[25] = target: Serine/threonine-protein kinase PAK 2 (Homo sapiens, UniProt Q13177); assay: Inhibition of human PAK2 by discoverX kinome scan assay
[26] = target: Phosphatidylinositol 5-phosphate 4-kinase type-2 beta (Homo sapiens, UniProt P78356); assay: Inhibition of human PIP5K2B by discoverX kinome scan assay
[27] = test system: KYSE-150 cell line; assay: Effect on cellular post-translational modifications on histone H4 (KVLR) - K20 monomethylated in human KYSE-150 cells assessed as relative abundance at 5 by mass spectrometric analysis (reference value: 27.4+/-8); type: functional; conditions: dose 5 µM; method in brief: as §1
[28] = target: Phosphatidylinositol 4,5-bisphosphate 3-kinase catalytic subunit alpha isoform (Homo sapiens, UniProt P42336, Q546K); assay: Inhibition of human PIK3CA Q546K mutant by discoverX kinome scan assay
[29] = Inhibition of human ABL1 pY253F mutant by discoverX kinome scan assay
[30] = test system: KYSE-270; assay: Antiproliferative activity against human KYSE-270 cells measured after 7 day by celltitre-glo luminescent assay; type: functional, cell-based; conditions: KYSE-270, 168 h
[31] = target: cGMP-dependent protein kinase 1 (Homo sapiens, UniProt Q13976); assay: Inhibition of PRKG1 (unknown origin) by discoverX kinome scan assay
[32] = target: Serine/threonine-protein kinase PLK2 (Homo sapiens, UniProt Q9NYY3); assay: Inhibition of human PLK2 by discoverX kinome scan assay
[33] = test system: KYSE-150 cell line; assay: Effect on cellular post-translational modifications on histone H3 (KSTGGKAPR) - K9 unmethylated, K14 unmethylated in human KYSE-150 cells assessed as relative abundance at 5 by mass spectrometric analysis (reference value: 10.2+/-0.3); type: functional; conditions: dose 5 µM; method in brief: as §1
[34] = target: Serine/threonine-protein kinase D2 (Homo sapiens, UniProt Q9BZL6); assay: Inhibition of PRKD2 (unknown origin) by discoverX kinome scan assay
UniProt Q9BZL6, sequence (Q9BZL6 whole entry): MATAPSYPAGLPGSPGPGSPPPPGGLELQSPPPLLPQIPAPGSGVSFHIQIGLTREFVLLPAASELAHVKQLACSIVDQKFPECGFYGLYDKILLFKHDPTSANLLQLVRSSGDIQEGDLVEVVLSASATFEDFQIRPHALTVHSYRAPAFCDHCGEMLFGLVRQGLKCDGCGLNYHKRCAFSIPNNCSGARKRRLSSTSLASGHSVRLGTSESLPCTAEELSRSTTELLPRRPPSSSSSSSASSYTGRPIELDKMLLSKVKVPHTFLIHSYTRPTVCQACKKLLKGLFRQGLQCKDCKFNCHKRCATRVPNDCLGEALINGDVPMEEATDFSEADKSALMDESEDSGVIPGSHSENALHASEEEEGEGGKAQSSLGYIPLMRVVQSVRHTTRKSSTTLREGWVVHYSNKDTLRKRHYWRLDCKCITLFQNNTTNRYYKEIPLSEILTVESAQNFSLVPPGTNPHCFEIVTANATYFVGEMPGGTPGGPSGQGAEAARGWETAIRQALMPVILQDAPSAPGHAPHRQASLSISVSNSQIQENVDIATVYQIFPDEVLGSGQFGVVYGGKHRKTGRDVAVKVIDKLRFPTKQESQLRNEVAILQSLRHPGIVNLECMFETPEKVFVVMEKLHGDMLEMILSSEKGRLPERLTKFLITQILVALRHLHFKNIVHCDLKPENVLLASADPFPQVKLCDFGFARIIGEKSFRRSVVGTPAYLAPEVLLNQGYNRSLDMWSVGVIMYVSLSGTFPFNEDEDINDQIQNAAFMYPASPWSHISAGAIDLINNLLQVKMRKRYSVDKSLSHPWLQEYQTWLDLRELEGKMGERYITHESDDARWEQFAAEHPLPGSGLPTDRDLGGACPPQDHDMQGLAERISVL

[35] = target: Serine/threonine-protein kinase MRCK alpha (Homo sapiens, UniProt Q5VT25); assay: Inhibition of human MRCKA by discoverX kinome scan assay
UniProt Q5VT25, sequence (Q5VT25 whole entry): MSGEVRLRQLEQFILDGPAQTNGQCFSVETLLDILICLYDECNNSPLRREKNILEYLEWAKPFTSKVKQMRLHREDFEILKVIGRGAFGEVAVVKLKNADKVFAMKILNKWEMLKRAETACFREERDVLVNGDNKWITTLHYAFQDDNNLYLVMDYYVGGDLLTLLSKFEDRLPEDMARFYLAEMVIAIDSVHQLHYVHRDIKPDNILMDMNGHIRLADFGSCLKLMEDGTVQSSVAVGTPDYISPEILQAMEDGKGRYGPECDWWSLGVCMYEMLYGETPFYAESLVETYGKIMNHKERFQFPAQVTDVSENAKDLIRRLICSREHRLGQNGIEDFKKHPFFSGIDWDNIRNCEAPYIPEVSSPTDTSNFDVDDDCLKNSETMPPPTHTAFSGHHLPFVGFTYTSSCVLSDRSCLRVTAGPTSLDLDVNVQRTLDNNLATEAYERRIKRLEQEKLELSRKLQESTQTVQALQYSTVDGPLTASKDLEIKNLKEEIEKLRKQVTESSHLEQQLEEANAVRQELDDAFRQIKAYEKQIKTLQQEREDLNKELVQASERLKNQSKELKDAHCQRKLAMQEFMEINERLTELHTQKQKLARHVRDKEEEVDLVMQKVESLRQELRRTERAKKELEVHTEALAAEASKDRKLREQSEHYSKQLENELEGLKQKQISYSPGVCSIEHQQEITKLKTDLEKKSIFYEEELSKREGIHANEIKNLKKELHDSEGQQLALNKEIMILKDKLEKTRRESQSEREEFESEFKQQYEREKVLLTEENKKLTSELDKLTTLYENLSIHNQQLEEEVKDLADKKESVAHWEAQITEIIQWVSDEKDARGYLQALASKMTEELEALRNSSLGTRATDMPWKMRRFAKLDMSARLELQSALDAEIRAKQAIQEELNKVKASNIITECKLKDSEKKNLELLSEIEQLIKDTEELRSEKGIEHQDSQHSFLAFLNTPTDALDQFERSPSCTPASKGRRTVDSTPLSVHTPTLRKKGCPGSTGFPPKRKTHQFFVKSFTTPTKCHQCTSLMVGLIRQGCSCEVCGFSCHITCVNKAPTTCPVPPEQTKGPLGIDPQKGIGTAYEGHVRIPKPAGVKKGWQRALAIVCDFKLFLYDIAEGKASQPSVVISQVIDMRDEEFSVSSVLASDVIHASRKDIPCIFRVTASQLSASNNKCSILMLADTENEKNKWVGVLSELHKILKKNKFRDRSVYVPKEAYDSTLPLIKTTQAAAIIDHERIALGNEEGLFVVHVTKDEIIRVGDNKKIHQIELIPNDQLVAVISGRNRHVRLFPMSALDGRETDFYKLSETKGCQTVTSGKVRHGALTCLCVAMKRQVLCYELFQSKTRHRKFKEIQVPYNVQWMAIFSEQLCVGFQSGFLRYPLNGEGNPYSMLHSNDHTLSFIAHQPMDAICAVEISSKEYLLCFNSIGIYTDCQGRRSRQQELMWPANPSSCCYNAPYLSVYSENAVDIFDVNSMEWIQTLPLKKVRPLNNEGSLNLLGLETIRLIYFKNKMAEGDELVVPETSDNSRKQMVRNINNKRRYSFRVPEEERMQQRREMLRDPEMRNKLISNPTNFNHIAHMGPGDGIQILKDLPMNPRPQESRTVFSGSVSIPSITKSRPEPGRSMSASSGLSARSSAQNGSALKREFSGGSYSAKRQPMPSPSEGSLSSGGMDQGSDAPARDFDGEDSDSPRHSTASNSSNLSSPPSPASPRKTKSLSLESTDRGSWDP

[36] = test system: KYSE-150 cell line; assay: Effect on cellular post-translational modifications on histone H3 (KSTGGKAPR) - K9 unmethylated, K14 unmethylated in human KYSE-150 cells assessed as fold change by mass spectrometric analysis; type: functional; method in brief: as §1
[37] = target: Phosphorylase b kinase gamma catalytic chain, skeletal muscle/heart isoform (Homo sapiens, UniProt Q16816); assay: Inhibition of human PHKG1 by discoverX kinome scan assay
UniProt Q16816, sequence (Q16816 whole entry): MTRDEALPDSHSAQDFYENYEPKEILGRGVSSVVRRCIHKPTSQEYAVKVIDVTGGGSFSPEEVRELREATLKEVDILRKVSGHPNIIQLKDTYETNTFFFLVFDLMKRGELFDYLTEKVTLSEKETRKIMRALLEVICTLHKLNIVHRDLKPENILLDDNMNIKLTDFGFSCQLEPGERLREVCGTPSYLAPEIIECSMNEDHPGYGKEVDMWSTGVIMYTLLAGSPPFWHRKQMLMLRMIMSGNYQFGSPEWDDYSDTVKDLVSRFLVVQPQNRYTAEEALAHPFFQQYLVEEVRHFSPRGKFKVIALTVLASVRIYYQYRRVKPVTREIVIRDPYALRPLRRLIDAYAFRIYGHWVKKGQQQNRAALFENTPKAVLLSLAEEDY

[38] = target: Serine/threonine-protein kinase PAK 4 (Homo sapiens, UniProt O96013); assay: Inhibition of human PAK4 by discoverX kinome scan assay

UniProt Q8TDX7, sequence (Q8TDX7 whole entry): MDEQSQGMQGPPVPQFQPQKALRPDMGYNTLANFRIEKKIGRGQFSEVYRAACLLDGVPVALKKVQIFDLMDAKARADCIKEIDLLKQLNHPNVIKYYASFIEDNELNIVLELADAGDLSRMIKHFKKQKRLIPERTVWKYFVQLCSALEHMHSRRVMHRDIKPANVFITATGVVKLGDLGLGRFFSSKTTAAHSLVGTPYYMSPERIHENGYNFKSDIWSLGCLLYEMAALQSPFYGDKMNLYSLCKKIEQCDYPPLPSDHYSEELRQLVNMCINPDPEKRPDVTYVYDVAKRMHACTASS

In the case of `Cc1cn(CCN2CCN(c3ccccc3-c3cc(C#N)cc(C(=O)NCCCN4CCCC4)c3)CC2)c2ccccc12`, the IC50 [1] is reported as > 20 µM, the IC50 [2] is reported as > 20 µM and the IC50 [3] is reported as > 20 µM. For the same molecule, the IC50 [4] was > 20 µM, the IC50 [5] was > 20 µM and the IC50 [6] was > 20 µM. The IC50 [7] was > 20 µM, the IC50 [8] was > 20 µM and the “fold change (FC)” value [9] was 0.9. For the same molecule, the “fold change (FC)” value [10] was 1.1, the inhibition [11] was “Active” and the IC50 [12] was > 20 µM. For the same molecule, the IC50 [13] was > 20 µM, the IC50 [14] was > 20 µM and the IC50 [15] was > 20 µM. For the same molecule, the IC50 [16] was > 20 µM, the “fold change (FC)” value [17] was 1 and the IC50 [18] was > 20 µM. The IC50 [19] was 0.3 µM, the IC50 [20] was > 20 µM and the IC50 [21] was > 20 µM. The IC50 [22] was > 20 µM, the “fold change (FC)” value [23] was 1.1 and the IC50 [24] was > 20 µM. The IC50 [25] was > 20 µM, the IC50 [26] was > 20 µM and the Activity [27] was 31. For the same molecule, the IC50 [28] was > 20 µM, the IC50 [29] was > 20 µM and the IC50 [30] was 0.3 µM. The IC50 [31] was > 20 µM, the IC50 [32] was > 20 µM and the Activity [33] was 10.9. The IC50 [34] was > 20 µM, the IC50 [35] was > 20 µM and the “fold change (FC)” value [36] was 0.9. For the same molecule, the IC50 [37] was > 20 µM and the IC50 [38] was > 20 µM.

Active and inactive are the calls of the source. The rule behind the calls is not given here.
